# Laboratory results as given in PubChem BioAssay AID1345083 (National Center for Advancing Translational Sciences (NCATS), 2018).
# The whole screen tested about 94,000 compounds, of which about 6,200 (6.6%) were called active. Inconclusive means that the source gave no clear call. Such entries were picked first, then a sample of the others. The call rests on the fitted dose curve; in most records, active means well fitted inhibition curve with a large enough effect; inconclusive means small, poorly fitted or top-dose-only effect; inactive means flat fitted curve, though single readings scatter. Where the call is inconclusive, the potency comes from a doubtful curve fit.
# Assay: Cytotoxic Profiling in HEK 293 Cell Line of Diverse Libraries Using Quantitative High-Throughput Screening; further: nearly all actives have a fitted effect of over 60% in size
# Details: HEK 293 viability, ATP luminescence (CellTiter-Glo), 48-72 h; series mostly up to 115 µM
# In short: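 HEK 293 cells at 250 cells/well were exposed to compounds by pintool transfer for 48 or 72 hr at 37 degree Celsius, 5% CO2. Viability was read as ATP-coupled luminescence with CellTiter-Glo after 10 min at room temperature.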
# Potency means the concentration at half of the fitted maximal effect; tags describe the fitted curve by direction and shape.
row,SMILES,Potency
1,CC(=O)N1CCn2c(nn(-c3ccc(C)cc3)c2=O)C1,"inconclusive: 126 µM [inhibitor, partial curve, poor fit]"
2,O=S(=O)(NCC1(COc2cnccn2)C[C@@H](O)[C@@H](O)C1)c1ccc(F)cc1 (stereo partly specified),"inconclusive: 79.4 µM [inhibitor, partial curve, poor fit]"
3,O=C(NCc1cc2n(n1)CCN(C1CCCCC1)C2)Nc1cccc(F)c1,inactive
4,CS(=O)(=O)N1CCCN(C(=O)C2(c3ccccc3)CC2)c2ccccc21,"inconclusive: 44.7 µM [inhibitor, partial curve, poor fit]"
5,O=C(NCCNC(=O)c1ccc(-c2cccc(C(F)(F)F)c2)cc1)c1ccccc1,inactive
6,COc1ccc(-c2cc(N3CCC(NC(=O)Cc4ccc(Cl)cc4)CC3)n[nH]2)cc1,"inconclusive: 39.8 µM [inhibitor, partial curve, poor fit]"
7,O=C(c1ccc(F)c(Cl)c1)N1CCN(C(=O)c2nnn3c2COC(c2ccccc2)C3)CC1 (stereo unspecified),"inconclusive: 39.8 µM [inhibitor, full curve, poor fit]"
8,O=C(Nc1ccc(F)c(Cl)c1)C1=NO[C@@H]2CN(Cc3cccnc3)C[C@H]12,"inconclusive: 35.5 µM [inhibitor, full curve, poor fit]"
9,Cc1cc2nc3n(c(=O)c2n1CC(=O)N1CCN(c2ccccc2F)CC1)CCCCC3,"inconclusive: 89.1 µM [inhibitor, partial curve, poor fit]"
10,Nc1ncccc1CN1CCC2(CC1)COCCN2C(=O)c1ccccc1,"inconclusive: 10 µM [inhibitor, full curve, poor fit]"
11,Cc1ccc(C)c(-c2[nH]ncc2CN2CCCC(CO)(CCc3ccccc3)C2)c1 (stereo unspecified),"inconclusive: 56.2 µM [inhibitor, partial curve, poor fit]"
12,CCN1c2cc(C(=O)Nc3cccc(Br)c3)ccc2C(=O)N2CCCCC21 (stereo unspecified),active: 17.8 µM
13,CCc1ccc(NC(=O)Nc2cccc(-c3nnc4n3CCCC4)c2)cc1,inactive
14,Cc1nn(-c2ccccc2)c2c1C(C)N(C1CCN(C(=O)c3cccc(Cl)c3)C1)C2=O (stereo unspecified),active: 22.4 µM
15,CC(=O)N(C1CCOCC1)C1CCN(S(=O)(=O)c2cc(F)ccc2C)CC1,"inconclusive: 79.4 µM [inhibitor, single point]"
16,CN(C)c1ccc(CN2CCOC[C@H]2c2ncc(-c3ccncc3)[nH]2)cc1,inactive
17,O=C(Nc1ccc2c(N3CCCC3)ncnc2c1)c1cccc(F)c1,"inconclusive: 7.94 µM [inhibitor, full curve, poor fit]"
18,COc1ccccc1CCN1CCCC(CN(C)C(=O)c2cc(C)n(C)c2C)C1 (stereo unspecified),"inconclusive: 79.4 µM [inhibitor, partial curve, poor fit]"
19,CC(C)CCN(C)Cc1ccc(-c2ccccc2)cc1,inactive
20,Cc1nn(C)c(C)c1S(=O)(=O)N1CCCC(Cn2c(C3CC3)nc3cccnc32)C1 (stereo unspecified),inactive
21,Cc1ccc(C(=O)N2CCCC(N3C(=O)c4c(c(C)nn4-c4ccccc4)C3C(C)C)C2)cc1 (stereo unspecified),active: 44.7 µM
22,Cc1ccccc1C(=O)N1CCC(N2CCCCCC2=O)CC1,inactive

row,SMILES,Potency
1,O=C(c1n[nH]c2ccccc12)N1CCCC1c1nc(CCOCC2CCCC2)no1 (stereo unspecified),"inconclusive: 56.2 µM [inhibitor, partial curve, poor fit]"
2,CN(CCC(C)(C)O)C(=O)c1cc2c(C(F)(F)F)nn(C)c2s1,inactive
3,COCCN1CCNc2nc(COc3cccc(C(F)(F)F)c3)n(Cc3ccccc3)c2C1=O,"inconclusive: 79.4 µM [inhibitor, partial curve, poor fit]"
4,COc1ccc(NC(=O)Cn2c(-c3ccc(F)cc3)nc(C)cc2=O)cc1,"inconclusive: 50.1 µM [inhibitor, partial curve, poor fit]"
5,Cn1cc(-c2cnc3n[nH]c(-c4ccccc4)c3n2)cn1,"inconclusive: 14.1 µM [inhibitor, full curve]"
6,Cc1nccn1CCC(NC(=O)c1cn(CCN)nn1)c1ccccc1 (stereo unspecified),inactive
7,Cc1cccc(NC(=O)C2(C)CCCCC(=O)N2)c1 (stereo unspecified),inactive
8,Cc1ccc(C(=O)N2CCCN(c3ccc4nnc(C5CC5)n4n3)CC2)cc1,inactive
9,CCN(CC)Cc1nc(C2(O)CCN(Cc3ccccc3C(F)(F)F)CC2)cs1,active: 89.1 µM
10,O=C(NC1CCN(c2ccnc3ccnn23)C1)c1ccc(Cl)cc1 (stereo unspecified),active: 10 µM
11,COc1ccc2[nH]cc(CCNC(=O)C3CCCN(Cc4ccncc4)CCC(=O)NCC3)c2c1 (stereo unspecified),inactive
12,CC(C)(C)C(=O)N1CCCC2(CN[S+](=O)([O-])c3cccnc3O2)C1 (stereo unspecified),inactive
13,Cc1cnc(C2CN(C(=O)C(C)Oc3ccccc3)C2)n1Cc1cccnc1 (stereo unspecified),inactive
14,COc1ncccc1-c1cc2c(nc1-c1ccccc1)nc(C(=O)NCCN(C)C)n2C,"inconclusive: 100 µM [inhibitor, partial curve, poor fit]"
15,CC(=O)N1CCC(Cn2cc(Cn3c(C)nc4ccccc43)nn2)CC1,"inconclusive: 89.1 µM [inhibitor, single point]"
16,COc1cccc(CNC(=O)CNC(=O)c2ccc(-c3cnc4ccccc4c3)cc2)c1,"inconclusive: 25.1 µM [inhibitor, single point]"
17,O=C(NC1CC1)c1ccccc1OCC1CCCN(Cc2ccncc2F)C1 (stereo unspecified),"inconclusive: 56.2 µM [inhibitor, single point]"
18,Cc1nn(-c2ccccc2)c2c1C(C(C)C)N(C1CCN(C(=O)c3cccc(Cl)c3)C1)C2=O (stereo unspecified),"inconclusive: 50.1 µM [inhibitor, partial curve, poor fit]"
19,CC(=O)N1CCc2cc(S(=O)(=O)CCC(=O)N3CCCC(Cc4nncn4CC4CC4)C3)ccc21 (stereo unspecified),inactive
20,COc1ccc(CNC(=O)N2CC(Oc3cccc(-c4nc(C)no4)c3)C2)cc1,"inconclusive: 44.7 µM [inhibitor, partial curve]"
21,O=C(COc1ccc(F)cc1)N1CCCC(Cc2noc(-c3ccccn3)n2)C1 (stereo unspecified),inactive
22,c1cncc(Nc2cc3c(cn2)CN(Cc2cccs2)CCN3)c1,"inconclusive: 11.2 µM [inhibitor, full curve, poor fit]"

row,SMILES,Potency
1,CSc1ccc(-c2ccc3c(c2)C(=O)N2CC[C@H](NC(=O)c4cccs4)C[C@H]2C(=O)N3)cc1,"inconclusive: 8.91 µM [inhibitor, full curve, poor fit]"
2,O=c1c2c(CO)c(-c3ccc(F)cc3)nn2ccn1Cc1ccc(Br)cc1,"inconclusive: 31.6 µM [inhibitor, partial curve]"
3,CCCNC(=O)C1COC2(CCC(C)CC2)N1C(=O)c1ccccc1Cl (stereo unspecified),"inconclusive: 25.1 µM [inhibitor, partial curve, poor fit]"
4,O=C1[C@@H]2C[C@@H](O)CN2C2(CN(Cc3cccs3)C2)C(=O)N1Cc1cccc(Cl)c1,"inconclusive: 126 µM [inhibitor, single point]"
5,CCOC(=O)C(Cc1cccc(N2CCN(C(=O)OC(C)(C)C)CC2)c1)OC (stereo unspecified),"inconclusive: 31.6 µM [inhibitor, full curve]"
6,O=C(NCCCn1ccnc1)c1ccc(-c2ncc3cnc(-c4cccc(F)c4)cn23)cc1,"inconclusive: 28.2 µM [inhibitor, full curve, poor fit]"
7,O=C(Cc1ccsc1)N1CCc2n[nH]c(=O)n2CC1,inactive
8,CC(C)CCN1CCCCCCNC(=O)[C@@H]2CCC[C@@H]21,"inconclusive: 89.1 µM [inhibitor, single point]"
9,CC(=O)Nc1cccc(-c2ccnc(-c3nnc(C)n3Cc3ccccc3)c2)c1,"inconclusive: 100 µM [inhibitor, partial curve]"
10,O=C(N[C@H]1CCN2C(=O)c3cc(-c4ccc(F)cc4F)ccc3NC(=O)[C@H]12)c1cccs1,"inconclusive: 89.1 µM [inhibitor, single point]"
11,COc1ccc(-c2ccc3nc(-c4ccccc4Cl)oc3c2)c(OC)c1OC,"inconclusive: 56.2 µM [inhibitor, partial curve, poor fit]"
12,CCCN1C(=O)CCc2cc(NC(=O)c3ccc4c(c3)OCO4)ccc21,active: 44.7 µM
13,O=C1NC2(CN([S+](=O)([O-])c3cccc(C(F)(F)F)c3)C2)Oc2ccccc21,"inconclusive: 50.1 µM [inhibitor, partial curve, poor fit]"
14,C=CCN1CC(C(=O)N2CCC3(CCC(=O)N(C4CC4)C3)CC2)CC1=O (stereo unspecified),inactive
15,CCCOc1cc(C)c2c(c1C)C[C@H](C(C)C(=O)N1CCN(CCO)CC1)CC2 (stereo partly specified),"inconclusive: 70.8 µM [inhibitor, partial curve, poor fit]"
16,COc1ccc(-c2ccnc(N[C@H]3CO[C@H]4[C@@H]3OC[C@H]4OC(=O)Nc3cccc4ccccc34)n2)cc1,active: 39.8 µM
17,Cn1ncc2c(C(=O)Nc3cccc(Cl)c3)cc(-c3cccc(C(F)(F)F)c3)nc21,"inconclusive: 7.94 µM [inhibitor, full curve, poor fit]"
18,O=C(NCCN1CCCC1)c1cnc2c(c1)N(C(=O)Cc1cccc(C(F)(F)F)c1)CCC2,inactive
19,COc1ccc(OCC2(C)COc3ccc(C(=O)Nc4ccc(OC)nc4)cc3N2)cc1 (stereo unspecified),active: 56.2 µM
20,N#Cc1ccc(CNC(=O)[C@@H]2Cc3nc[nH]c3CN2CC2CCCCC2)cc1,"inconclusive: 100 µM [inhibitor, partial curve]"
21,CC(C)NC(=O)NC1CCN(C(=O)c2ccc(-c3cccs3)cc2)CC1,inactive
22,CCOc1cc(=O)n2c(c1C(=O)Nc1cc(Cl)ccc1F)CCCC2,"inconclusive: 28.2 µM [inhibitor, full curve]"
